Experimental data taken from the supplement of paper PMC8728848.
The other results are listed elsewhere or left out.

Legend:
Assay in all cases: glycan array binding signal (z-score within array); higher = stronger binding
Conditions in all cases: glycan notation: IUPAC condensed, linker removed; mutation: F63H
[1] = target: Gal(b1-4)GlcNAc(b1-3)Gal(b1-4)GlcNAc(b1-3)Gal(b1-4)GlcNAc(b1-3)Gal(b1-4)GlcNAc(b1-2)Man(a1-3)[Gal(b1-4)GlcNAc(b1-3)Gal(b1-4)GlcNAc(b1-3)Gal(b1-4)GlcNAc(b1-3)Gal(b1-4)GlcNAc(b1-2)Man(a1-6)]Man(b1-4)GlcNAc(b1-4)GlcNAc
Method in brief: (§1)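 The Consortium for Functional Glycomics database supplied 3228 glycan arrays, of which those lacking an available protein sequence were dropped. The binding signal, a within-array Z-score, was averaged across arrays of the same protein sequence and across linkers. Negative scores can be read as non-binding.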

[2] = target: Gal(b1-4)GlcNAc(b1-3)Gal(b1-4)GlcNAc(b1-3)Gal(b1-4)GlcNAc(b1-3)Gal(b1-4)GlcNAc(b1-2)Man(a1-3)[Gal(b1-4)GlcNAc(b1-3)Gal(b1-4)GlcNAc(b1-3)Gal(b1-4)GlcNAc(b1-3)Gal(b1-4)GlcNAc(b1-2)Man(a1-6)]Man(b1-4)GlcNAc(b1-4)[Fuc(a1-6)]GlcNAc
Method in brief: as §1

[3] = target: Gal(b1-4)GlcNAc(b1-3)Gal(b1-4)GlcNAc(b1-3)Gal(b1-4)GlcNAc(b1-3)Gal(b1-4)GlcNAc(b1-2)[Gal(b1-4)GlcNAc(b1-3)Gal(b1-4)GlcNAc(b1-3)Gal(b1-4)GlcNAc(b1-3)Gal(b1-4)GlcNAc(b1-6)]Man(a1-6)[Gal(b1-4)GlcNAc(b1-3)Gal(b1-4)GlcNAc(b1-3)Gal(b1-4)GlcNAc(b1-3)Gal(b1-4)GlcNAc(b1-2)Man(a1-3)]Man(b1-4)GlcNAc(b1-4)[Fuc(a1-6)]GlcNAc
Method in brief: as §1

[4] = target: Gal(b1-4)GlcNAc(b1-3)Gal(b1-4)GlcNAc(b1-3)Gal(b1-4)GlcNAc(b1-3)Gal(b1-4)GlcNAc(b1-3)Gal(b1-4)GlcNAc(b1-2)Man(a1-3)[Gal(b1-4)GlcNAc(b1-3)Gal(b1-4)GlcNAc(b1-3)Gal(b1-4)GlcNAc(b1-3)Gal(b1-4)GlcNAc(b1-3)Gal(b1-4)GlcNAc(b1-2)Man(a1-6)]Man(b1-4)GlcNAc(b1-4)GlcNAc
Method in brief: as §1

[5] = target: Gal(b1-4)GlcNAc(b1-3)Gal(b1-4)GlcNAc(b1-3)Gal(b1-4)GlcNAc(b1-3)Gal(b1-4)GlcNAc(b1-3)Gal(b1-4)GlcNAc(b1-2)Man(a1-3)[Gal(b1-4)GlcNAc(b1-3)Gal(b1-4)GlcNAc(b1-3)Gal(b1-4)GlcNAc(b1-3)Gal(b1-4)GlcNAc(b1-3)Gal(b1-4)GlcNAc(b1-2)Man(a1-6)]Man(b1-4)GlcNAc(b1-4)[Fuc(a1-6)]GlcNAc
Method in brief: as §1

[6] = target: Gal(b1-4)GlcNAc(b1-3)Gal(b1-4)GlcNAc(b1-3)Gal(b1-4)GlcNAc(b1-3)Gal(b1-4)GlcNAc(b1-3)Gal(b1-4)GlcNAc(b1-2)[Gal(b1-4)GlcNAc(b1-3)Gal(b1-4)GlcNAc(b1-3)Gal(b1-4)GlcNAc(b1-3)Gal(b1-4)GlcNAc(b1-3)Gal(b1-4)GlcNAc(b1-6)]Man(a1-6)[Gal(b1-4)GlcNAc(b1-3)Gal(b1-4)GlcNAc(b1-3)Gal(b1-4)GlcNAc(b1-3)Gal(b1-4)GlcNAc(b1-3)Gal(b1-4)GlcNAc(b1-2)Man(a1-3)]Man(b1-4)GlcNAc(b1-4)[Fuc(a1-6)]GlcNAc
Method in brief: as §1

[7] = target: Gal(b1-4)GlcNAc(b1-3)Gal(b1-4)GlcNAc(b1-3)Gal(b1-4)GlcNAc(b1-3)Gal(b1-4)GlcNAc(b1-3)Gal(b1-4)GlcNAc(b1-3)Gal(b1-4)GlcNAc(b1-2)Man(a1-3)[Gal(b1-4)GlcNAc(b1-3)Gal(b1-4)GlcNAc(b1-3)Gal(b1-4)GlcNAc(b1-3)Gal(b1-4)GlcNAc(b1-3)Gal(b1-4)GlcNAc(b1-3)Gal(b1-4)GlcNAc(b1-2)Man(a1-6)]Man(b1-4)GlcNAc(b1-4)GlcNAc
Method in brief: as §1

[8] = target: Gal(b1-4)GlcNAc(b1-3)Gal(b1-4)GlcNAc(b1-3)GalNAc
Method in brief: as §1

[9] = target: Gal(b1-4)GlcNAc(b1-3)Gal(b1-4)GlcNAc(b1-3)[Gal(b1-4)GlcNAc(b1-3)Gal(b1-4)GlcNAc(b1-6)]GalNAc
Method in brief: as §1

[10] = target: Gal(b1-4)GlcNAc(b1-3)Gal(b1-4)GlcNAc(b1-6)[Gal(b1-3)]GalNAc
Method in brief: as §1

[11] = target: Gal(b1-4)GlcNAc(b1-3)Gal(b1-4)[Fuc(a1-3)]GlcNAc(b1-3)Gal(b1-4)[Fuc(a1-3)]GlcNAc
Method in brief: as §1

[12] = target: Gal(b1-4)GlcNAc(b1-3)GalNAc
Method in brief: as §1

[13] = target: Gal(b1-4)GlcNAc(b1-3)[Fuc(a1-3)GlcNAc(b1-6)]Gal(b1-4)Glc
Method in brief: as §1

[14] = target: Gal(b1-4)GlcNAc(b1-3)[Gal(b1-4)GlcNAc(b1-6)]Gal(b1-4)GlcNAc
Method in brief: as §1

[15] = target: Gal(b1-4)GlcNAc(b1-3)[GlcNAc(b1-6)]Gal(b1-4)GlcNAc
Method in brief: as §1

[16] = target: Gal(b1-4)GlcNAc(b1-6)Gal(b1-4)GlcNAc
Method in brief: as §1

[17] = target: Gal(b1-4)GlcNAc(b1-6)GalNAc
Method in brief: as §1

[18] = target: Gal(b1-4)GlcNAc(b1-6)[Gal(b1-3)]GalNAc
Method in brief: as §1

[19] = target: Gal(b1-4)GlcNAc(b1-6)[Gal(b1-4)GlcNAc(b1-3)]GalNAc
Method in brief: as §1

Gal(b1-4)GlcNAc6P = target: Gal(b1-4)GlcNAc6P
Method in brief: as §1

Gal(b1-6)Gal = target: Gal(b1-6)Gal
Method in brief: as §1

Gal3S(b1-3)GalNAc = target: Gal3S(b1-3)GalNAc
Method in brief: as §1

Gal3S(b1-3)GlcNAc = target: Gal3S(b1-3)GlcNAc
Method in brief: as §1

B1: AAL (Agrocybe aegerita), Q6WY08 (protein)
chain: MQGVNIYNISAGTSVDLAAPVTTGDIVTFFSSALNLNAGAGNPNNTTLNLFAENGAYLLHIAHRLQENVIIFNSRQPDGPWLVEQRVSDVANQFAGIDGKAMVTVFDHGDKYQVVINEKTVIQYTKQISGLTLSLSYNATEETSIFSTVVEAVTYTGLALEHHHHHH
glycan array binding signal (z-score) [1]: 0.144
glycan array binding signal (z-score) [2]: 0.394
glycan array binding signal (z-score) [3]: 0.63
glycan array binding signal (z-score) [4]: -0.037
glycan array binding signal (z-score) [5]: -0.033
glycan array binding signal (z-score) [6]: -0.207
glycan array binding signal (z-score) [7]: 0.376
glycan array binding signal (z-score) [8]: -0.163
glycan array binding signal (z-score) [9]: 0.226
glycan array binding signal (z-score) [10]: -0.777
glycan array binding signal (z-score) [11]: 0.354
glycan array binding signal (z-score) [12]: -0.105
glycan array binding signal (z-score) [13]: -0.308
glycan array binding signal (z-score) [14]: 0.113
glycan array binding signal (z-score) [15]: -0.344
glycan array binding signal (z-score) [16]: -0.305
glycan array binding signal (z-score) [17]: -0.051
glycan array binding signal (z-score) [18]: 0.187
glycan array binding signal (z-score) [19]: -0.175
glycan array binding signal (z-score) (Gal(b1-4)GlcNAc6P): 0.049
glycan array binding signal (z-score) (Gal(b1-6)Gal): -0.264
glycan array binding signal (z-score) (Gal3S(b1-3)GalNAc): -0.302
glycan array binding signal (z-score) (Gal3S(b1-3)GlcNAc): -0.185
